# Screen size: about 140,000 compounds; about 240 (0.17%) were called active. Inconclusive means that the source gave no clear call. Such entries were picked first, then a sample of the others. The call rests on the fitted dose curve; in most records, active means well fitted inhibition curve with a large enough effect; inconclusive means small, poorly fitted or top-dose-only effect; inactive means no such curve, though single readings can be large or run the other way. Potencies of inconclusive entries are doubtful fits and often do not repeat.
# Experiment: Primary qHTS assay for inhibitors of alpha-synuclein gene (SNCA) expression; further: nearly all actives have a fitted effect of over 45% in size
# Settings: HEK-293 SNCA-luciferase knock-in, luminescence, 24 h; series mostly up to 57.2 µM
# Potency means the concentration at half of the fitted maximal effect; tags describe the fitted curve by direction and shape.
row,Compound,Potency
1,CSc1ccc(NC(=O)c2cc(-c3ccc[nH]3)n[nH]2)cc1,inactive
2,Cc1c(CN2C[C@@H](CO)[C@H](NC(=O)c3ccccc3)C2)cnn1C,"inconclusive: 10 µM [inhibitor, partial curve, poor fit]"
3,Cc1ccc(NC(=O)C2CCN(C(=O)c3ncn4c3COC(c3ccc(F)cc3)C4)CC2)cc1C (configuration not stated),inactive
4,COc1ccc(-c2nc(C3CC3)nc3c2CCN(Cc2ccsc2)CC3)cc1,"inconclusive: 3.55 µM [inhibitor, full curve]"
5,O=S(=O)(c1ccc2c(c1)CCC2)N1CCCCC1c1nc(CCOCC2CC2)no1 (configuration not stated),inactive
6,COc1ccc(Nc2ccc3c(n2)CN(Cc2nc4ccccc4s2)C(=O)CO3)cn1,inactive
7,Cc1cccc(CN2CCc3ncc(C(=O)NCc4ccccc4)n3CC2)c1,"inconclusive: 2.51 µM [inhibitor, full curve, poor fit]"
8,COCc1nc(C2CC(N)C2)cc(N2CCC(NS(C)(=O)=O)CC2)n1 (configuration not stated),"inconclusive: 10 µM [inhibitor, partial curve, poor fit]"
9,Cc1cccc(CNC(=O)C2Cn3cccc3C(=O)N2Cc2cccnc2)c1 (configuration not stated),"inconclusive: 39.8 µM [inhibitor, single point]"
10,COc1cccc(C(=O)Nc2ccccc2-c2nc(-c3ccc(C)cc3)no2)c1,inactive
11,O=C1NC(=NC2CCCCC2)C2(CCN(CC3CCCCC3)C2)N1c1cc(F)cc(F)c1 (configuration not stated),"inconclusive: 3.55 µM [inhibitor, partial curve, poor fit]"
12,Cc1ccc(C(=O)NCc2nnnn2-c2ccc(C)c(C)c2)cc1,"inconclusive: 39.8 µM [inhibitor, single point]"
13,Cc1ccc(-c2nnc(Nc3ccc(Br)cc3)c3ccccc23)cc1S(=O)(=O)NCc1nc2ccccc2[nH]1,"inconclusive: 39.8 µM [inhibitor, single point]"
14,COC(=O)c1ccc2nc(CO[C@H]3CN(C(C)=O)C[C@H]3F)[nH]c2c1,"inconclusive: 12.6 µM [inhibitor, single point]"
15,Cc1noc2c(N3CCNC(=O)C3)cc(-c3cccc(C(F)(F)F)c3)nc12,"inconclusive: 39.8 µM [inhibitor, single point]"
16,CCCCCNc1ncnc2c1CN(c1ccc(Cl)cc1)C(=O)CN2C,inactive
17,COc1ccccc1-c1ccc(C(=O)N2CCC(NC(=O)N(C)C)CC2)cc1,"inconclusive: 39.8 µM [inhibitor, single point]"
18,COc1ccc(CNC(=O)C(=O)Nc2cc(Cl)ccc2OC)cc1,"inconclusive: 2.51 µM [inhibitor, partial curve, poor fit]"
19,COc1ccc(C(=O)N2CCC3(C2)C(=NC2CCCCC2)NC(=O)N3c2cccc(OC)c2)cc1 (configuration not stated),"inconclusive: 3.55 µM [inhibitor, partial curve, poor fit]"
20,CCCc1nn2c(=O)cc(COC(=O)c3ccco3)nc2s1,"inconclusive: 39.8 µM [inhibitor, partial curve, poor fit]"
21,COc1ccc(CNC(=O)C[C@@H]2C[C@H]3O[C@H](CNCc4ccccc4Cl)[C@@H](O)[C@H]3O2)cc1,"inconclusive: 25.1 µM [inhibitor, partial curve, poor fit]"

row,Compound,Potency
1,O=C(C1CCCC1)N1CC2(CCN(Cc3c[nH]c4ccccc34)CC2)Cc2ccccc21,"inconclusive: 35.5 µM [inhibitor, single point]"
2,CC(C)n1ccnc1CN1CCCC12CCN(c1ccc(C(F)(F)F)cn1)CC2,inactive
3,COc1cc(OC)c(-c2c(-c3ccccc3)ncn2CCF)cc1OC,inactive
4,Cc1ncsc1C(=O)N1CCC2(CC1)OC(=O)N(Cc1ccccc1)C2(C)c1cccnc1 (configuration not stated),inactive
5,CCN(CC)c1cc2c(cc1F)c(=O)c(S(=O)(=O)c1ccccc1)cn2C,"inconclusive: 7.08 µM [inhibitor, single point]"
6,CCC(CC)n1c(=O)n(Cc2ccc(C(=O)N(C)C)o2)c2cc(C(=O)O)cnc21,inactive
7,COc1ccc(-c2cn(C)c(=O)n3cc(COc4ccnn4C)nc23)cc1,inactive
8,COc1ccc(CN(C)Cc2cccs2)cc1OCC(O)CN1CCN(C)CC1 (configuration not stated),inactive
9,CCNC(=O)c1cccnc1OC1CCN(C(=O)c2cc(F)ccc2F)C1 (configuration not stated),"inconclusive: 1.58 µM [inhibitor, partial curve, poor fit]"
10,O=C(Nc1nccs1)[C@@H]1C[C@@H](c2ccc(F)cc2)N(CCOc2ccccc2)C1,"inconclusive: 28.2 µM [inhibitor, single point]"
11,CCOc1ccc2c(c1)c(=O)c(C(=O)c1ccc(C)cc1)cn2Cc1ccccc1OC,"inconclusive: 14.1 µM [inhibitor, partial curve, poor fit]"
12,CCS(=O)(=O)c1ncc(Cl)c(C(=O)N(Cc2ccccc2)c2ccc(OC)cc2)n1,"inconclusive: 5.01 µM [inhibitor, full curve, poor fit]"
13,CCC(c1cccs1)N1C(=O)[C@H]2CN(S(=O)(=O)c3ccccc3Cl)C[C@H]2C1=O (some centres not stated),inactive
14,CS(=O)(=O)N1CCCC(C(=O)NCCN2CCc3ccccc3C2)CCNC(=O)CC1 (configuration not stated),"inconclusive: 10 µM [inhibitor, full curve, poor fit]"
15,Cn1c(Oc2ccccc2)nc2c1c(=O)n(Cc1ccc(Cl)cc1Cl)c(=O)n2C,"inconclusive: 7.08 µM [inhibitor, single point]"
16,O=c1cc(-c2cccnc2)oc2c(NCc3ccccc3)nccc12,inactive
17,CN(C)c1cccc(C(=O)N2CCN(C(=O)c3nnn4c3COC(c3ccc(Cl)cc3)C4)CC2)c1 (configuration not stated),"inconclusive: 3.98 µM [inhibitor, single point]"
18,c1ccc(-c2ccc(N3CC4(CCNCC4)C3)cc2)cc1,"inconclusive: 39.8 µM [inhibitor, single point]"
19,CN(C)Cc1cn2c(=O)n(C)cc(-c3ccc(O)c(F)c3)c2n1,"inconclusive: 1.26 µM [inhibitor, full curve, poor fit]"
20,Clc1cccnc1-c1cc(NCc2ccccn2)nc2[nH]ccc12,inactive
21,O=C1NCc2ccccc2CC12CCN(Cc1cc(F)ccc1O)C2 (configuration not stated),inactive
